In PMC10320511:
Results are given in words; binding and its absence hold for the method and conditions named. Binding seen in cells or lysates may run through a third protein. Some entries that bind do so weakly or less than the wild type. Where a sequence is shown, tags or fusion partners need not be part of it.

T1: FREQUENCY (FRQ), wild type, tagged with V5H6 (Neurospora crassa) (UniProt P19970)
T1 sequence: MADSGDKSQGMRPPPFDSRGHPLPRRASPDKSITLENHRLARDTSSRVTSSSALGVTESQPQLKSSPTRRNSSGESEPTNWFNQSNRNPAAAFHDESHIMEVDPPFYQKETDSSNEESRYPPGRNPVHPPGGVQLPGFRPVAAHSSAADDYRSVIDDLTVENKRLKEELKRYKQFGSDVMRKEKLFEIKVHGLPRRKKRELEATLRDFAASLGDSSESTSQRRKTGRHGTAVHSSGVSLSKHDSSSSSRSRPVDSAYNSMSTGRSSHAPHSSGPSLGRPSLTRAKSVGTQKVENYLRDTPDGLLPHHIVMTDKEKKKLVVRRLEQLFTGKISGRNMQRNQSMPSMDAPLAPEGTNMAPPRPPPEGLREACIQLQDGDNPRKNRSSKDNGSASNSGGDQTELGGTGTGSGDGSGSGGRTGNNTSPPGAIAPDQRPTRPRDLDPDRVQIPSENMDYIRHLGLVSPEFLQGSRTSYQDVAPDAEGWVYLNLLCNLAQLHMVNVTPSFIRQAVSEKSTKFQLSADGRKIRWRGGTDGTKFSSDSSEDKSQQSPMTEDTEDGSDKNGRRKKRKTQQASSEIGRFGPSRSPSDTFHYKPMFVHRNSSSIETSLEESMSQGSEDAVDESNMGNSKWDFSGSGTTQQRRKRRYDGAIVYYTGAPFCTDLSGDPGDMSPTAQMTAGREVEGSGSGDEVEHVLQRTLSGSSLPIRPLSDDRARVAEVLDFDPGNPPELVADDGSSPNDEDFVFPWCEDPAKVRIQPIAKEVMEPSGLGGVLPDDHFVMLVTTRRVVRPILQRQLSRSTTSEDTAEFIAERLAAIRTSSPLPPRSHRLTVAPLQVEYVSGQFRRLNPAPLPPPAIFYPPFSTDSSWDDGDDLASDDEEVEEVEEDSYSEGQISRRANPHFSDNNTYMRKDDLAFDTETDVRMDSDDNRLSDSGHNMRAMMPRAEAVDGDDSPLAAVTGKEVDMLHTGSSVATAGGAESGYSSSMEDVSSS

T2: FRQ 559–989, V5H6-tagged (Neurospora crassa) (UniProt P19970)
T2 sequence: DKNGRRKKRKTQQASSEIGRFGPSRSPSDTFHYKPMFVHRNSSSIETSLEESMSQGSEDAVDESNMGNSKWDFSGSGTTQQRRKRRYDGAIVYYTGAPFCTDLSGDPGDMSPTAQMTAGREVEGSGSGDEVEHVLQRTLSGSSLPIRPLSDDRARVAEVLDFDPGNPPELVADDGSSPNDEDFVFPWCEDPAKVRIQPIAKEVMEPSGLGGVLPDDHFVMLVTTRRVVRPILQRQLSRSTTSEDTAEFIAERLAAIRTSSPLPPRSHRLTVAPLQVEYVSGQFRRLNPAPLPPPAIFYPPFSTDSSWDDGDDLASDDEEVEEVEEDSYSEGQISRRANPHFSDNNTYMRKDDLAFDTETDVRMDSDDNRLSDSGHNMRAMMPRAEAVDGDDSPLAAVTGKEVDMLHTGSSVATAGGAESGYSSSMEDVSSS

T3: FRQ D664A, D667A, V5H6-tagged (Neurospora crassa) (UniProt P19970)
T3 sequence: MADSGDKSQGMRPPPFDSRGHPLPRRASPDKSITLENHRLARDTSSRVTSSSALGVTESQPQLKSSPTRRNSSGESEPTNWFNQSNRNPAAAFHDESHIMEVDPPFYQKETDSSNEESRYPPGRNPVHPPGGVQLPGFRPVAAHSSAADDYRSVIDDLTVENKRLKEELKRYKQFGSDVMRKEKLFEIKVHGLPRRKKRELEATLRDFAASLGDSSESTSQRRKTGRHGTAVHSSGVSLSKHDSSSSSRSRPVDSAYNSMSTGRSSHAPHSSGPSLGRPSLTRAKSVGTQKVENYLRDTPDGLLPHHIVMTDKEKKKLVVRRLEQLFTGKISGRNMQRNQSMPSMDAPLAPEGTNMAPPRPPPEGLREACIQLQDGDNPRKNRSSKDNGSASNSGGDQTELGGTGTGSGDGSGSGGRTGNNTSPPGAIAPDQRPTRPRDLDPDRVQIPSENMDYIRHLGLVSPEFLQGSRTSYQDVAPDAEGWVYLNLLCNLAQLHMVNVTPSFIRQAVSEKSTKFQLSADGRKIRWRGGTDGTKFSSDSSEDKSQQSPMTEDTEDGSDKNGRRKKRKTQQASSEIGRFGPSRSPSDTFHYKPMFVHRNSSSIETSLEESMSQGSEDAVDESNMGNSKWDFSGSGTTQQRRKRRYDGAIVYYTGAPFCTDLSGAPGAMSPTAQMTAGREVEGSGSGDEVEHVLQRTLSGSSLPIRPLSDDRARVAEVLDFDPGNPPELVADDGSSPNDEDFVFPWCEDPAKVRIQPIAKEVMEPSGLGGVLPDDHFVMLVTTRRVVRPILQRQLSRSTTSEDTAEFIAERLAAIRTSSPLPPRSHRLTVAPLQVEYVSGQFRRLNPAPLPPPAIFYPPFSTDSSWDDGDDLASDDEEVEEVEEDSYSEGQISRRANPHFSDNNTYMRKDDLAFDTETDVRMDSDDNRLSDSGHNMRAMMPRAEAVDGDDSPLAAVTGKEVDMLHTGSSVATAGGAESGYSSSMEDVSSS


Key:
Test in all cases: co-IP; V5H6-tagged FRQ (wild type or mutant) pulled down with V5 agarose from Neurospora lysate (cultures in the light, 25 °C); 50 mM Hepes pH 7.4, 137 mM NaCl, 10% glycerol, 0.4% NP-40; 4 °C, 2 h; Western blot with FRQ, FRH, WC-1 and WC-2 antibodies
[1] = biological target: T1, FREQUENCY (FRQ), wild type, tagged with V5H6 (Neurospora crassa)
[2] = biological target: T2, FRQ 559–989, V5H6-tagged (Neurospora crassa)
[3] = biological target: T3, FRQ D664A, D667A, V5H6-tagged (Neurospora crassa)

binding [1] | binding [2] | binding [3] | Binder
binds | binds | binds | FRQ-interacting RNA helicase (FRH) (protein, UniProt Q1K502 1-1106) MDDLFEVFEEQPRAQKKRKASPDVEMADGAAAAAPVANAAAAVTHPQAQAAPAPQKDNIDNNDNNNNNTTTSAVQPTIPNGDAAAAADDVQSPQSPHGLGDNKRRKKTDEAEPIMTDAFQTAESREVTGAQGFAPTEGESIVLSHNIQHQVALPPDLDYEYIPLSEHKPPAEPARTYSFKLDPFQALSVASIEREESVLVSAHTSAGKTVVAEYAIAQCLKKNQRVIYTSPIKALSNQKYRDFQAEFGDVGLMTGDVTINPTASCLVMTTEILRSMLYRGSEIMREVAWVVFDEIHYMRDKIRGVVWEETIILLPDKVRYVFLSATIPNAFQFAEWIAKIHRQACHVVYTDFRPTPLQNYFFPAGGKGILLIVDEKGNFKENNFNQAMAMIEEKKGTDSNDWSAKQKGKGKNKKTNKGGEAADEKADIAKIIKMILKKNFQPVIVFNFSKRECEQMALASSSMKFNAPDEENMVNKVFENALASLSEDDKNLPQISNILPLLRKGIGVHHSGLLPILKETIEILFQEGLIKVLFATETFSIGLNMPARTVVFTQVTKWDGQQRRPLTSSEYIQMAGRAGRRGLDDRGIVIMMVDDKLEPETARAIVVGNQDKLNSAFHLGYNMVLNLLRIEAISPEYMLERCFFQFQNAASVPQLERELISLQQERDAIIIPDESIVKDYYGVRQQLEEYNKDMVFVIQHPQNCLGFFQEGRLIHIKSPSGVDYGWGVLIKHIQRQTPKNGQPPYPEQESYVLDVLLKVSGDFNPKTRGEGPMPEGIMPAGKDSKNARWEVVPCLLNCLRALGQLRVFLPKRLESADEKDGVGKAVDEISRRFPDGIPILDPMENMGINDDSFKKLLRKIEVLESRLVANPLHNSPLLVELWNQYSLKMQLGEQIKEKKKAIARAHSVAQLDELKSRKRVLRRLGFINDAEVVQMKARVACEISSTEGHELLLAELLFNRFFNELSPEICACILSCFIFDEKIETQALKEELAKPFREIQAQARIIAKVSAESKLDVNEDEYVQSLKWQLMETVLAWAQGRPFSEICKMTNVYEGSLIRLFRRLEELLRQMAEAARVMGSEELKDKFELSLSKIRRDIVSFNSLYL
binds | no binding | binds weakly | White Collar-2 (WC-2) (protein, UniProt P78714 1-530) MSHGQPPPGSSMYGFGAMGMGSGMGSGMGSGMGTGMGTGMGTGMSASQMTSDPQDMMSLLDTSVFPGFDGMSMSLDVGDSMSNPFTPVSVPPPLPAGNAGPSHVGVCGGHGAPDQLFSPDDLIATSMSSAGPMIATPTTTTSGPSGGPSSGGGSTLTEFTKRRNWPAKVVEELQDWEHILDANGRIKHVSPSVEPLTGYKPPEIIDLFLRDLIHPDDVGVFTAELNEAIATGSQLRLFYRFRKKDGNWTIFETVGHAHIAAAKFAPNPQNQSPFCQAVFMMARPYPTKNAGLLDSFLEHKIENERLKRRIAELRREEQEEQEESHRTWRMSQEGRSDVTPSDDTATQMGMTPFYIPMNAQADVMMPPPSQPASSLNIALTRENLEGIAGSRPDSIREKMLRYEGNHADTIEMLTGLKYQEGERSHGITTGNASPTLIKGDAGIAIPLDRDPRTGEKKKKIKVAEEYVCTDCGTLDSPEWRKGPSGPKTLCNACGLRWAKKEKKKNANNNNNGGGIGGHNDIHTPMGDHMG
